According to article PMC4336329 (PLoS ONE, 2015):
In all, about 310,000 compounds went through this assay and about 2,200 (0.71%) showed an effect of 50% or more. The effect is printed as a negative number. Some of the results follow.

Target: human ether-à-go-go-related gene (hERG) potassium channel (human, UniProt Q12809)
Test: primary screen, population patch clamp on CHO cells stably expressing hERG

Sequence of human ether-à-go-go-related gene (hERG) potassium channel (Q12809 whole entry, looked up): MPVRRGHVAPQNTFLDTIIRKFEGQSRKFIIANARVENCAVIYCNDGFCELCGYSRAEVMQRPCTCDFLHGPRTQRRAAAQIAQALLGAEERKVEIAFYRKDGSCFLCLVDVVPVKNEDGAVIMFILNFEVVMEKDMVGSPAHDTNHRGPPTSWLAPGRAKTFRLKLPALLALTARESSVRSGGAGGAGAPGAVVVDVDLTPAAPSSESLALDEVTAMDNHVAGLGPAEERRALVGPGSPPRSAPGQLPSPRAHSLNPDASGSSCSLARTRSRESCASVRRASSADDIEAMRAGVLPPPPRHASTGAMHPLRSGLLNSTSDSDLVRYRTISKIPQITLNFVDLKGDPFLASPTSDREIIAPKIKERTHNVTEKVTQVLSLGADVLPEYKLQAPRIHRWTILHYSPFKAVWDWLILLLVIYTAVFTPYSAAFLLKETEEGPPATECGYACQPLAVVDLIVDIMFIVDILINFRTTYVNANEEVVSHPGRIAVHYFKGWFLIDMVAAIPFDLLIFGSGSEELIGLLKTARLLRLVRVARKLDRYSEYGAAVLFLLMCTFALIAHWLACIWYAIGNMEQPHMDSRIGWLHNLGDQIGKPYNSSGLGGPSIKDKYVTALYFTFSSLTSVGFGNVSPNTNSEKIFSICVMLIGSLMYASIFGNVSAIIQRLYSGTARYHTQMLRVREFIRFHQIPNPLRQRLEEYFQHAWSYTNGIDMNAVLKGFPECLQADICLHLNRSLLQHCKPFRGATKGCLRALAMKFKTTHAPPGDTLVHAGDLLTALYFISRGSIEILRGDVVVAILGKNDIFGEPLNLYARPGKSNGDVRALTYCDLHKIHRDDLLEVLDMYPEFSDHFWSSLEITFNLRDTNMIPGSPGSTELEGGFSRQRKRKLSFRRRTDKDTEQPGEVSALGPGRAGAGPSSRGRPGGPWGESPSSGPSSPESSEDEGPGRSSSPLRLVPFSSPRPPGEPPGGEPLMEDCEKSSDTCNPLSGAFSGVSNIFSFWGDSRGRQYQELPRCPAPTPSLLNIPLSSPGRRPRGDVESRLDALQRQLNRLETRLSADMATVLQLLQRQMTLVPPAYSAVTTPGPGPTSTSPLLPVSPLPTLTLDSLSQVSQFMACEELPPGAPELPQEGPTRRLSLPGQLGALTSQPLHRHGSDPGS

SMILES | hERG current change (%, negative = inhibition) at 1uM
O=C(CCCc1cccs1)NCCc1c[nH]c2ccccc12 | 10.6%
c1csc(C2Nc3cccc4cccc(c34)N2)c1 | 4.56%
Cc1cc(C(=O)NCc2cccc(Cl)c2)c2ccccc2n1 | 17.7%
C=CCN1C(=O)C(CCCC)NC1=S (stereo not drawn) | 7.96%
CN(C)/C=C/C(=O)C(F)(F)F | 2.94%
OCCC1CN(Cc2cccc3c2OCO3)CCN1C1CCCCC1 (stereo not drawn) | 15.4%
CN(C)c1ccnc2sc(C(=O)c3ccccc3)c(N)c12 | 0.0674%
O=C(NNC(=O)C1CC2CCC1C2)c1ccccc1 (stereo not drawn) | 15.4%
CCOC(=O)CSc1cc(C)nc(NC(C)=O)n1 | 1%
COc1ccccc1OCC(=O)OCC(=O)Nc1sccc1C(N)=O | 5.11%
COc1cc2c(cc1OC)C(Cc1ccc(O)cc1)N(C)CC2 (stereo not drawn) | 5.25%
CN1CCCCc2c1nc1c(c2N)CCCC1 | 0.539%
COc1ccccc1NC(=O)c1c(N=Cc2c(O)ccc3ccccc23)cnn1C | 14.4%
O=S1(=O)CCOC[C@H](CC2CCCCC2)N1Cc1cccc(F)c1 | 14.6%
O=S(=O)(Nc1cccc(S(=O)(=O)N2CCOCC2)c1)c1ccc(Cl)s1 | 8.6%
O=C1C2C3C=CC(C3)C2C(=O)N1c1ccc2c(c1)OCO2 (stereo not drawn) | -3.98%
COCCNC(=O)C(c1ccc(Cl)cc1)N(Cc1ccco1)C(=O)CCC(=O)Nc1ccccn1 (stereo not drawn) | 1.56%
O=C(Nc1ccc2c(c1)OCCO2)C1CCN(c2cnccn2)CC1 | 8.99%
COc1cccc(NC(=O)Nc2ccc3nsnc3c2)c1 | 16.5%
CN(Cc1ccccc1)C(=O)Cn1nc(C(F)(F)F)c2c1CCC2 | 7.05%
COc1cc(-c2c(C#N)c(N)nc3c2c(C)nn3-c2ccc(C)c(C)c2)cc(OC)c1OC | 21.1%
COc1cc(OC)cc(C(=O)/C=C2\Sc3ccccc3N2C)c1 | 5.65%
COc1ccc(/C(N)=N/OC(=O)/C=C/c2ccccc2)cc1 | -0.201%
COc1ccc(OC)c(C(=O)CC2OC(=O)c3ccccc32)c1 (stereo not drawn) | 5.4%
Cc1c(C(=O)NCc2cccs2)oc2ccc(S(=O)(=O)N3CCOCC3)cc12 | 9.05%
O=C(O)Cc1ccc(C(=O)c2ccc(Cl)cc2Cl)s1 | 6.58%
CCOC(=O)/C(C#N)=C1/SC(C)C(=O)N1c1ccc(Br)cc1 (stereo not drawn) | -4.6%
